Measured values published in ChEMBL document CHEMBL1201862, “PubChem BioAssay data set” (2004).
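Following 48 hours of exposure in 96-well plates, responses at five concentrations were used to interpolate endpoints linearly. At the GI50, growth is halved.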 The source made the active and inactive calls. Cut-off read from the data, not from the text of the source: active = GI50 up to about 1.1 µM and inactive = higher.

The compounds below were run on NCI-H322M (assay: DTP human tumour cell line panel, 48 h).

SMILES | GI50
Cc1ccc(S(=O)(=O)Nc2nnc(S(N)(=O)=O)s2)cc1 | inactive: > 100 µM
Cc1cccc2c(O)c3c(O)cc(O)cc3nc12 | inactive: > 10 µM
CN(C)CCNc1ccccn1 | inactive: > 100 µM
CC(C)CC(NC(=O)c1cccc(O)c1O)C(=O)NCc1cc(CNC(=O)C(CC(C)C)NC(=O)c2cccc(O)c2O)cc(CNC(=O)C(CC(C)C)NC(=O)c2cccc(O)c2O)c1 (stereo not drawn) | inactive: 11.2 µM
Nc1nc(Cl)cc(NCC2(CO)CCCC2)n1 | inactive: > 100 µM
CCOC(=O)c1sc(=S)n(-c2ccc(Cl)cc2)c1-n1cc(-c2ccccc2)c(C#N)c1N | inactive: 45.7 µM
CCOC(=O)c1csc(NC(=O)CCN(CC)CC)n1 | inactive: > 100 µM
NC(=O)C1(c2ccccc2)Nc2ccccc2S1 (stereo not drawn) | inactive: > 100 µM
CCC/C(Cl)=N/OC(=O)Nc1cc(C(F)(F)F)ccc1OC | inactive: 17.5 µM
O=P(O)(O)C=C=C1CCCCC1 | inactive: > 100 µM
Cc1cn(C2CC(OC(=O)c3ccc(Cl)cc3)C(COC(=O)c3ccc(Cl)cc3)O2)c(=O)[nH]c1=O (stereo not drawn) | inactive: > 100 µM
O=C(CC(Cl)(Cl)C(Cl)(Cl)Cl)c1ccccc1 | inactive: 13 µM
COCc1nc(N)nc(N2N=C(C)CC2(C)C)n1 | inactive: > 100 µM
Nc1nc(Cl)cc(NCC2(CCO)CCC2)n1 | inactive: > 100 µM
Cc1cn2cc(-c3ccncc3)nc2s1 | inactive: > 100 µM
CC1=C(C(=O)Nc2cc(F)c(F)cc2F)C(c2cccc([N+](=O)[O-])c2)C(C(=O)Nc2ccccc2C(F)(F)F)=C(C)N1 (stereo not drawn) | inactive: 24.8 µM
O=C(CN1c2ccccc2Sc2ccccc21)N1CCNCC1 | inactive: > 100 µM

SMILES | GI50
CS(=O)(=O)C[S+]([O-])C[S+]([O-])C[S+]([O-])CC(NC(=O)CCC(N)C(=O)O)C(=O)O (stereo not drawn) | inactive: > 100 µM
O=C(Nc1ccc2[nH]c(C(=O)N3CC(CCl)c4c3cc([N+](=O)[O-])c3ccccc43)cc2c1)c1cc2ccccc2o1 (stereo not drawn) | inactive: > 100 µM
COC(=O)CNC(=O)c1cc(C)cc2c1Oc1c(cc(C)cc1C(=O)NCC(=O)OC)S2 | inactive: 31.4 µM
O=C(N/N=C(\c1ccccc1)c1ccccn1)NC1CCCCC1 | inactive: 31.2 µM
CN1C(=O)C23CCCC2CC1(c1ccccc1)S3 (stereo not drawn) | inactive: > 100 µM
CC(=O)O[C@H]1[C@H](OC(=O)CC(C)(O)CC(=O)O)C[C@]2(C)C3=C(CCC2C1(C)C)[C@]1(C)CC[C@H]([C@H]2CC[C@H](C(C)(C)O)OC2O)[C@@]1(C)[C@@H](O)C3 (stereo partly drawn) | inactive: 19 µM
COc1cccc(C2C3=C(COC3=O)Oc3cc4c(cc32)OCO4)c1 (stereo not drawn) | active: 0.106 µM
COC(=O)C1(Cc2ccc3c(c2)CCC3)Cc2ccccc2C1 | inactive: 58.3 µM
O=c1cccccc1NCCCCCCNc1cccccc1=O | inactive: > 100 µM
COc1cc(/C=C/C(=O)c2ccc(O)c(OC)c2)ccc1O | inactive: 11.8 µM
COc1ccc([C@H]2CC(=O)C[C@H](c3ccc(OC)cc3OC)C23C(=O)c2ccccc2C3=O)c(OC)c1 | inactive: > 100 µM
Cc1nc2ccc(Br)cc2c(=O)n1-c1ccc(N)cc1 | inactive: > 100 µM
CCCC[C@@H](C)/C=C1\CN2CCC[C@H]2[C@@](C)(O)[C@@H]1O | inactive: > 100 µM
C=C1C[C@@H]2CC[C@@]34CC5O[C@H]6C(O[C@H]7CC[C@H](CC(=O)O[C@@H]8[C@@H](C)[C@@H]9O[C@@H]%10C[C@]%11(C[C@@H]%12O[C@]%13(C[C@H](C)[C@@H]%14O[C@@H]%15CC(C(COC(C)=O)OC(C)=O)O[C@@H]%15C[C@@H]%14O%13)C[C@H](C)[C@@H]%12O%11)O[C@@H]%10C[C@@H]9O[C@H]8CC8O[C@@H](CC[C@@H]1O2)C[C@@H](C)C8(O)CO)O[C@@H]7[C@@H]6O3)[C@H]5O4 (stereo partly drawn) | active: 0.46 µM
O=C1CCCC/C1=C\c1ccc([N+](=O)[O-])cc1 | inactive: 34 µM
Nc1ccn([C@@H]2C=C(CO)[C@@H](O)[C@H]2O)c(=O)n1 | active: 0.377 µM
